Consider two molecules from paper PMC10318468.

The chains behind the UniProt entries cited, without tags or fusion partners.
UniProt Q9Y3Z3: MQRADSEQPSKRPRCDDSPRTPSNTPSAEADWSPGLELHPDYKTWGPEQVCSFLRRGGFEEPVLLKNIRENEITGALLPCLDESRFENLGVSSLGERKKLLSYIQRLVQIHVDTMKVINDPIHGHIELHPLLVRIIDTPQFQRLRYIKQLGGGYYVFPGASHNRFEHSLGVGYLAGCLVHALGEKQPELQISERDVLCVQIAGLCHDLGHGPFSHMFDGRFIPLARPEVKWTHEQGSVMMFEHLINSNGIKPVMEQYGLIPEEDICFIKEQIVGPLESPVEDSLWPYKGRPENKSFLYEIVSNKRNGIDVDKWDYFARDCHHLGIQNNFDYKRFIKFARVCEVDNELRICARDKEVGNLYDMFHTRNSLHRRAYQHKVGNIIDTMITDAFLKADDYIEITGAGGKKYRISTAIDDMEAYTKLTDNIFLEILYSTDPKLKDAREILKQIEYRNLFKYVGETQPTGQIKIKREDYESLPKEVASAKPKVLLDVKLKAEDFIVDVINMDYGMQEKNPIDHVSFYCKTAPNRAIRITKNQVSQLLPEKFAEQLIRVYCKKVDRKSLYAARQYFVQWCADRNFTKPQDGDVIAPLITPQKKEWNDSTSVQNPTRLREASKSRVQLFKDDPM

Results are given in words; binding and its absence hold for the method and conditions named. Binding seen in cells or lysates may run through a third protein. Some entries that bind do so weakly or less than the wild type. Sequences can lack the tags named with a protein.

The target of assay [1] is T1, FLAG-tagged IKKβ wildtype (human) (UniProt O14920).
T1 sequence: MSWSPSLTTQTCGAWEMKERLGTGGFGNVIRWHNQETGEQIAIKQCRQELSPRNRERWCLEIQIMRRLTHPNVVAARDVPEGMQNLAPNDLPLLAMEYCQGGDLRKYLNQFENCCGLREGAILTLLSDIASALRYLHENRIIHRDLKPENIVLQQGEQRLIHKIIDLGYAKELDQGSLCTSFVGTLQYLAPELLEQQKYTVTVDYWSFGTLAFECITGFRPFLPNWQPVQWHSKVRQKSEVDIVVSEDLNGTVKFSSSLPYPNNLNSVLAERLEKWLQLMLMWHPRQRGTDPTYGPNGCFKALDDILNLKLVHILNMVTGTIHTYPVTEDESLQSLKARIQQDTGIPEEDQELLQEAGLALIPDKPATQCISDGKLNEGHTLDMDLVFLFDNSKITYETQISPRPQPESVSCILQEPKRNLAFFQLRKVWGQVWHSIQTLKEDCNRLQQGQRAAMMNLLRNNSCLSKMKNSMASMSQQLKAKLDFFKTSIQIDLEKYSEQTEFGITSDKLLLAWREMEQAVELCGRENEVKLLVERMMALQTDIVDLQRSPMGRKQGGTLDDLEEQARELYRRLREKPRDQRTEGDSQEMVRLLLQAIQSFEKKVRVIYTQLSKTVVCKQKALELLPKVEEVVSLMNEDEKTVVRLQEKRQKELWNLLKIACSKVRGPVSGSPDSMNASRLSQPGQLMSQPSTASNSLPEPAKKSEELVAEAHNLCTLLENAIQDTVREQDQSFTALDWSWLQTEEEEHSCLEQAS
As to the kind of experiment: co-IP; HEK293T cotransfected for 48 h with HA-SAMHD1 (WT or truncated) and FLAG-IKK; FLAG antibody and Dynabeads protein G, IgG as negative control; washed with 50 mM Tris-HCl pH 7.4, 150 mM NaCl, 1% NP-40, 0.25% sodium deoxycholate; Western blot. A general note: Immunoblotting shows a protein as a band on a membrane.

Assay [2] has as its target T2, FLAG-tagged IKKα wildtype (human) (UniProt O15111).
T2 sequence: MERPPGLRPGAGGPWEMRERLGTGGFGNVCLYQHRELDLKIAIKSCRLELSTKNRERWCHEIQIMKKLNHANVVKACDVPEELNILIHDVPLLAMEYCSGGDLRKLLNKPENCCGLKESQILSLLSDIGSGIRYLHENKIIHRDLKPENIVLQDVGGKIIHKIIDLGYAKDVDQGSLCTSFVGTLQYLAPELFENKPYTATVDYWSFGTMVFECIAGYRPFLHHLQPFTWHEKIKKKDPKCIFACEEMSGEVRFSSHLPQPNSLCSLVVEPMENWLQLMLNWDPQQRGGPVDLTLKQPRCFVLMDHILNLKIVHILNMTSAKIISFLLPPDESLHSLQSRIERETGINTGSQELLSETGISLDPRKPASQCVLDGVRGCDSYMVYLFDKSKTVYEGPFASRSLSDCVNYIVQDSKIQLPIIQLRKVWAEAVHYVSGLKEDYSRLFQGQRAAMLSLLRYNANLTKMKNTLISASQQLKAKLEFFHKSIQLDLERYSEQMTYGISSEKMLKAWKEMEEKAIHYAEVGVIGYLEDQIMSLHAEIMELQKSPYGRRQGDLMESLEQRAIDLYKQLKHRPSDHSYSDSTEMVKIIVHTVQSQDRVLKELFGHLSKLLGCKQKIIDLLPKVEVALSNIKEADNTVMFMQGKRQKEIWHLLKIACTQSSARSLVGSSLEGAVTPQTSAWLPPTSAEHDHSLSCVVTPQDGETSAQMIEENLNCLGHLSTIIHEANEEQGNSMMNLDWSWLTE
Described as above.

The target of the next assay is T3, Myc-IKKα (human) (UniProt O15111).
T3 sequence: T2 sequence
Briefly: co-IP; HEK293T cotransfected with FLAG-TAK1, increasing amounts of HA-SAMHD1 and Myc-IKKα or Myc-IKKβ; FLAG antibody for IP; Western blot.

Assay [3] concerns the target T4, FLAG-TAK1 (transforming growth factor β-activated kinase 1), O43318.
T4 chain: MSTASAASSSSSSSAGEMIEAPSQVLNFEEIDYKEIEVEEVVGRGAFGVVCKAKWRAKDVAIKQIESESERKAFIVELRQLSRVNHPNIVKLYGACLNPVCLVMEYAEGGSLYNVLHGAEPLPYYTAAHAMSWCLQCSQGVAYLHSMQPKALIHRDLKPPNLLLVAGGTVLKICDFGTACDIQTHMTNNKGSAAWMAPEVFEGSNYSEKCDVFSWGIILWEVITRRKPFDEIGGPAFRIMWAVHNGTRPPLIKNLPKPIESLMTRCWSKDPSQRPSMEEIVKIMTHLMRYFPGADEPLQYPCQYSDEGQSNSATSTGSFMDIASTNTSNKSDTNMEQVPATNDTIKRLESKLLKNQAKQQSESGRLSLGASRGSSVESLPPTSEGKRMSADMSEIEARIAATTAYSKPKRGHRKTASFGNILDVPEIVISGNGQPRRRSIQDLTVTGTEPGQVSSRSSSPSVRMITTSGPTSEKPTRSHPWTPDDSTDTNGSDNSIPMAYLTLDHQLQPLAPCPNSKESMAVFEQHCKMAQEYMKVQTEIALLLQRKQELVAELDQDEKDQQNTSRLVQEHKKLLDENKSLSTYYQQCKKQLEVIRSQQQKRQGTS
The assay is described as above. The conditions noted are these: remark: other sources report otherwise.

Consider “HA-tagged SAMHD1 wildtype (from UniProt Q9Y3Z3 1-626)”, for which the binding entry (in assay [1]; in assay [2]; with Myc-IKKα (human)) was “binds” in each case.

B1: Myc-IKKα, O15111 1-745 (protein)
chain: T2 sequence
B1: the binding entry in assay [3] was “binds”.
